# Test results from PMC2896402.
# Chains of the proteins cited; added tags and fusions are not shown.
# UniProt Q9Y297: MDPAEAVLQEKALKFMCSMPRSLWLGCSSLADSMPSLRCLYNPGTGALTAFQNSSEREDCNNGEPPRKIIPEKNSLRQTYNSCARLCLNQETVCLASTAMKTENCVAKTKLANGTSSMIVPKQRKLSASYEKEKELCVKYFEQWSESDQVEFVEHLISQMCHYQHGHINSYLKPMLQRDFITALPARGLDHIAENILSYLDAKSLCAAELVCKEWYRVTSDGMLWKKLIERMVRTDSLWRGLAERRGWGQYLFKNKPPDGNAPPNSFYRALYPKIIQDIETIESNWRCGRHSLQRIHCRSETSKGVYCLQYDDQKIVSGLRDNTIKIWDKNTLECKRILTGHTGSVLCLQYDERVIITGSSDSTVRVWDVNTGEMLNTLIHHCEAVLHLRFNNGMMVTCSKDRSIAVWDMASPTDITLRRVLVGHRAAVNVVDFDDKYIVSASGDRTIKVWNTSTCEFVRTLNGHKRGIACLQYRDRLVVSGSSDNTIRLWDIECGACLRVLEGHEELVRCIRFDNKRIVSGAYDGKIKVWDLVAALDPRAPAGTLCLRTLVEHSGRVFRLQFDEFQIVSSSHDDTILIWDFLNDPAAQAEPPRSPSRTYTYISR
# UniProt Q9UKB1: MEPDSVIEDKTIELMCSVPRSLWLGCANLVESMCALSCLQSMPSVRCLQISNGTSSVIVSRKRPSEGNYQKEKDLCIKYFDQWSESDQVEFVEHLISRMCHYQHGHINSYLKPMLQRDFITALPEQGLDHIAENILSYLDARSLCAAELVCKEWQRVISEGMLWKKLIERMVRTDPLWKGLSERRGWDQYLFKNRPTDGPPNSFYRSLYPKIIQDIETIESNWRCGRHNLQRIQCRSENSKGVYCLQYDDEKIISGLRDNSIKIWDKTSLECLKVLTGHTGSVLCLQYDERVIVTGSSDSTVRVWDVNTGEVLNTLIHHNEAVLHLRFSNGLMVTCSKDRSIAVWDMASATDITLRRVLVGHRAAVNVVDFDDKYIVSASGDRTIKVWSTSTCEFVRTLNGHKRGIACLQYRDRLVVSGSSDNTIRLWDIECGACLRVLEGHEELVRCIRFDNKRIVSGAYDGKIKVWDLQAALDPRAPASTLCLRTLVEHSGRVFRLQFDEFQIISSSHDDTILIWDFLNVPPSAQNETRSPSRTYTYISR
# Residue numbers refer to the chain shown, from its start. Results are given in words; binding and its absence hold for the method and conditions named. In cells and extracts the contact can be indirect. Some results given as binding are weak or reduced against the parent protein; the word gives no strength. For part of these data: Sequences can lack the tags named with a protein.
# What was measured:
# [1] = molecular target: FOXO3 (endogenous, MCF-7) (human (endogenous in MCF-7)) (UniProt O43524); assay: co-IP; endogenous proteins in total lysates of MCF-7 cells; IP with anti-FOXO3 and IB with anti-βTrCP1, and reciprocal; lysates sonicated and precleared with nonspecific IgG, antibody at 4°C overnight; rabbit IgG or isotype mouse IgG as IP negative control
# GST-FO(301–673) = molecular target: T1, GST-FO(301–673) (UniProt O43524); assay: pull-down; GST-FO fusion proteins on glutathione-Sepharose beads; 1 mg total lysate of 293T cells transfected with IKKβ or treated with TNFα (10 ng/ml); binding buffer 50 mM Tris pH 7.5, 100 mM NaCl, 10 mM MgCl2, 0.5% Nonidet P-40; overnight at room temperature or 4°C; IB with anti-βTrCP1 or anti-βTrCP2; only the target purified
# T1 sequence: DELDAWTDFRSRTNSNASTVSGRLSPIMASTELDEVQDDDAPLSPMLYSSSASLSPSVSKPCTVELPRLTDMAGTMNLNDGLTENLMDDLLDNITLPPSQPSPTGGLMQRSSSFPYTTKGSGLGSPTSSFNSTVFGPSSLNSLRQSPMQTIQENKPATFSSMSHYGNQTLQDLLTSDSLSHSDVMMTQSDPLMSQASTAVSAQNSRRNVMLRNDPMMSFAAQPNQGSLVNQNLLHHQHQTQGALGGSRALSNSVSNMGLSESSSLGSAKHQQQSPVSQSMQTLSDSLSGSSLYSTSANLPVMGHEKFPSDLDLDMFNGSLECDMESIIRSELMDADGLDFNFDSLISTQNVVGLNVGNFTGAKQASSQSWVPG
# GST-FO(626–673) = molecular target: T2, GST-FO(626–673) (UniProt O43524); assay: as above
# T2 sequence: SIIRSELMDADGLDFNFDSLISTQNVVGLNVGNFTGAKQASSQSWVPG
# GST-FO(579–625) = molecular target: T3, GST-FO(579–625) (UniProt O43524); assay: as above
# T3 sequence: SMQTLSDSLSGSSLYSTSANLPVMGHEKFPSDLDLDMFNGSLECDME
# GST-FO (301–673)AAA = molecular target: T4, GST-FO (301–673)AAA (UniProt O43524); assay: as above
# T4 sequence: T1 sequence with S286A, S290A, S344A
# GST-FO(301–346) = molecular target: T5, GST-FO(301–346) (UniProt O43524); assay: as above
# T5 sequence: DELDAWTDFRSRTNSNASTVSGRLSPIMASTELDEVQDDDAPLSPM
# HA-FOXO3 = HA-FOXO3 (UniProt O43524); assay: co-IP; total lysates of 293T cells cotransfected with HA-tagged FOXO3 plus myc-tagged βTrCP1 or βTrCP1ΔF, and IKKβ or an empty vector; IP anti-myc and IB anti-HA, and reciprocal IP anti-HA and IB anti-myc
# GST-FO(1–300) = GST-FO(1–300) (UniProt O43524); assay: pull-down; GST-FO fusion proteins on glutathione-Sepharose beads; 1 mg total lysate of 293T cells transfected with IKKβ or treated with TNFα (10 ng/ml); binding buffer 50 mM Tris pH 7.5, 100 mM NaCl, 10 mM MgCl2, 0.5% Nonidet P-40; overnight at room temperature or 4°C; IB with anti-βTrCP1 or anti-βTrCP2; only the target purified
substance,measurement,setting,value
"βTrCP1 (endogenous, MCF-7) (from UniProt Q9Y297 1-605)",binding,[1],binds
"βTrCP1 (endogenous, 293T lysate) (from UniProt Q9Y297 1-605)",binding,GST-FO(301–673),binds
same,binding,GST-FO(626–673),binds
same,binding,GST-FO(579–625),binds
same,binding,GST-FO (301–673)AAA,no binding
same,binding,GST-FO(301–346),binds
myc-βTrCP1 (from UniProt Q9Y297 1-605),binding,HA-FOXO3,binds
"βTrCP2 (endogenous, 293T lysate) (from UniProt Q9UKB1 1-542)",binding,GST-FO(301–673),no binding
same,binding,GST-FO(1–300),no binding
